# According to the supplement of paper PMC8728848:
# Some of the results follow.
# Legend:
# Experiment in all cases: glycan array binding signal (z-score within array); higher = stronger binding
# Settings in all cases: glycan notation: IUPAC condensed, linker removed
# [1] = molecular target: GlcNAc(b1-4)GlcNAc(b1-4)GlcNAc(b1-4)GlcNAc(b1-4)GlcNAc(b1-4)GlcNAc
# How it was run: (§1)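 Glycan array binding is given as a within-array Z-score, which can be read as non-binding when negative. The arrays, 3228 of them, came from the Consortium for Functional Glycomics database and were retained only where the protein sequence was available. Z-scores were averaged across arrays of the same protein sequence at different concentrations or buffers and across linkers.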
# [2] = molecular target: GlcNAc(b1-4)[GlcNAc(b1-6)]GalNAc
# How it was run: as §1
# [3] = molecular target: GlcNAc(b1-6)Gal(b1-4)GlcNAc
# How it was run: as §1
# GlcNAc(b1-6)GalNAc = molecular target: GlcNAc(b1-6)GalNAc
# How it was run: as §1
# [4] = molecular target: GlcNAc6S(b1-3)Gal(b1-4)GlcNAc
# How it was run: as §1
# Kdn(a2-3)Gal(b1-3)GalNAc = molecular target: Kdn(a2-3)Gal(b1-3)GalNAc
# How it was run: as §1
# Kdn(a2-3)Gal(b1-3)GlcNAc = molecular target: Kdn(a2-3)Gal(b1-3)GlcNAc
# How it was run: as §1
# Kdn(a2-3)Gal(b1-4)Glc = molecular target: Kdn(a2-3)Gal(b1-4)Glc
# How it was run: as §1
# Kdn(a2-3)Gal(b1-4)GlcNAc = molecular target: Kdn(a2-3)Gal(b1-4)GlcNAc
# How it was run: as §1
# [5] = molecular target: Kdn(a2-3)Gal(b1-4)[Fuc(a1-3)]GlcNAc
# How it was run: as §1
# Kdn(a2-6)Gal(b1-4)GlcNAc = molecular target: Kdn(a2-6)Gal(b1-4)GlcNAc
# How it was run: as §1
# [6] = molecular target: Man(a1-2)Man(a1-2)Man(a1-3)Man
# How it was run: as §1
# [7] = molecular target: Man(a1-2)Man(a1-2)Man(a1-6)[Man(a1-3)]Man
# How it was run: as §1
# Man(a1-2)Man(a1-3)Man = molecular target: Man(a1-2)Man(a1-3)Man
# How it was run: as §1
# [8] = molecular target: Man(a1-2)Man(a1-3)[Man(a1-2)Man(a1-6)]Man
# How it was run: as §1
# [9] = molecular target: Man(a1-2)Man(a1-3)[Man(a1-2)Man(a1-6)]Man(a1-6)[Man(a1-2)Man(a1-2)Man(a1-3)]Man
# How it was run: as §1
# [10] = molecular target: Man(a1-2)Man(a1-3)[Man(a1-2)Man(a1-6)]Man(a1-6)[Man(a1-2)Man(a1-2)Man(a1-3)]Man(b1-4)GlcNAc(b1-4)GlcNAc
# How it was run: as §1
# [11] = molecular target: Man(a1-2)Man(a1-3)[Man(a1-6)]Man(a1-6)[Man(a1-2)Man(a1-3)]Man(b1-4)GlcNAc(b1-4)GlcNAc
# How it was run: as §1
# [12] = molecular target: Man(a1-2)Man(a1-6)[Man(a1-3)]Man(a1-6)[Man(a1-2)Man(a1-2)Man(a1-3)]Man
# How it was run: as §1
# [13] = molecular target: Man(a1-2)Man(a1-6)[Man(a1-3)]Man(a1-6)[Man(a1-2)Man(a1-2)Man(a1-3)]Man(b1-4)GlcNAc(b1-4)GlcNAc
# How it was run: as §1
# Man(a1-3)[Man(a1-6)]Man = molecular target: Man(a1-3)[Man(a1-6)]Man
# How it was run: as §1
# [14] = molecular target: Man(a1-3)[Man(a1-6)]Man(a1-6)[Man(a1-2)Man(a1-3)]Man(b1-4)GlcNAc(b1-4)GlcNAc
# How it was run: as §1
# [15] = molecular target: Man(a1-3)[Man(a1-6)]Man(a1-6)[Man(a1-3)]Man
# How it was run: as §1
# [16] = molecular target: Man(a1-3)[Man(a1-6)]Man(a1-6)[Man(a1-3)]Man(b1-4)GlcNAc(b1-4)GlcNAc
# How it was run: as §1
# [17] = molecular target: Man(a1-3)[Man(a1-6)]Man(b1-4)GlcNAc(b1-4)GlcNAc
# How it was run: as §1
# [18] = molecular target: Man(a1-3)[Man(a1-6)]Man(b1-4)GlcNAc(b1-4)[Fuc(a1-6)]GlcNAc
# How it was run: as §1
# Man(a1-6)Man = molecular target: Man(a1-6)Man
# How it was run: as §1
# Man(b1-4)GlcNAc = molecular target: Man(b1-4)GlcNAc
# How it was run: as §1
# MurNAc(b1-4)GlcNAc = molecular target: MurNAc(b1-4)GlcNAc
# How it was run: as §1
# Neu5Ac(a2-3)Gal = molecular target: Neu5Ac(a2-3)Gal
# How it was run: as §1
# [19] = molecular target: Neu5Ac(a2-3)Gal(b1-3)GalNAc
# How it was run: as §1
# [20] = molecular target: Neu5Ac(a2-3)Gal(b1-3)GalNAc(b1-3)Gal(a1-4)Gal(b1-4)Glc
# How it was run: as §1
# [21] = molecular target: Neu5Ac(a2-3)Gal(b1-3)GalNAc(b1-4)Gal(b1-4)Glc
# How it was run: as §1
# [22] = molecular target: Neu5Ac(a2-3)Gal(b1-3)GalNAc(b1-4)[Neu5Ac(a2-3)]Gal(b1-4)Glc
# How it was run: as §1
# [23] = molecular target: Neu5Ac(a2-3)Gal(b1-3)GalNAc(b1-4)[Neu5Ac(a2-8)Neu5Ac(a2-3)]Gal(b1-4)Glc
# How it was run: as §1
# [24] = molecular target: Neu5Ac(a2-3)Gal(b1-3)GalNAc6S
# How it was run: as §1
# [25] = molecular target: Neu5Ac(a2-3)Gal(b1-3)GlcNAc
# How it was run: as §1
# [26] = molecular target: Neu5Ac(a2-3)Gal(b1-3)GlcNAc(b1-2)Man
# How it was run: as §1
# [27] = molecular target: Neu5Ac(a2-3)Gal(b1-3)GlcNAc(b1-2)Man(a1-3)[GlcNAc(b1-4)][Neu5Ac(a2-3)Gal(b1-3)GlcNAc(b1-2)Man(a1-6)]Man(b1-4)GlcNAc(b1-4)GlcNAc
# How it was run: as §1
# [28] = molecular target: Neu5Ac(a2-3)Gal(b1-3)GlcNAc(b1-2)Man(a1-3)[Neu5Ac(a2-3)Gal(b1-3)GlcNAc(b1-2)Man(a1-6)]Man(b1-4)GlcNAc(b1-4)GlcNAc
# How it was run: as §1
# [29] = molecular target: Neu5Ac(a2-3)Gal(b1-3)GlcNAc(b1-2)[Neu5Ac(a2-3)Gal(b1-3)GlcNAc(b1-4)]Man(a1-6)[Neu5Ac(a2-3)Gal(b1-3)GlcNAc(b1-2)Man(a1-3)]Man(b1-4)GlcNAc(b1-4)GlcNAc
# How it was run: as §1
# [30] = molecular target: Neu5Ac(a2-3)Gal(b1-3)GlcNAc(b1-3)Gal(b1-3)GlcNAc
# How it was run: as §1
# [31] = molecular target: Neu5Ac(a2-3)Gal(b1-3)GlcNAc(b1-3)Gal(b1-4)GlcNAc
# How it was run: as §1
# [32] = molecular target: Neu5Ac(a2-3)Gal(b1-3)GlcNAc(b1-3)GalNAc
# How it was run: as §1
# [33] = molecular target: Neu5Ac(a2-3)Gal(b1-3)GlcNAc(b1-6)GalNAc
# How it was run: as §1
binder,measurement,setting,value
Pwp3 (Candida glabrata) (protein) MGSSHHHHHHSSGLVPRGSHMASKNPVDFTTVCQFPDNFSKKPGFLATTARLGLWITGNSYKELLNYPGTFTLTTQQASTTTPNIQLRGTDLFTTIYGLTVYPLYLLVELQGYFVPTQSGMYTFSLTGSDDAAIIFIGNPSTFPCDAFKTWPQATANDITVTDSINPSRTLYMVKGVAYPLRIAYYNGLGNGVLNAAFTDPSGTKRTDWNGYIWQYDQCSTCTYK,glycan array binding signal (z-score),[1],-0.159
same,glycan array binding signal (z-score),[2],-1.04
same,glycan array binding signal (z-score),[3],-0.165
same,glycan array binding signal (z-score),GlcNAc(b1-6)GalNAc,-0.116
same,glycan array binding signal (z-score),[4],-0.374
same,glycan array binding signal (z-score),Kdn(a2-3)Gal(b1-3)GalNAc,2.03
same,glycan array binding signal (z-score),Kdn(a2-3)Gal(b1-3)GlcNAc,-0.784
same,glycan array binding signal (z-score),Kdn(a2-3)Gal(b1-4)Glc,-0.426
same,glycan array binding signal (z-score),Kdn(a2-3)Gal(b1-4)GlcNAc,-0.913
same,glycan array binding signal (z-score),[5],-0.203
same,glycan array binding signal (z-score),Kdn(a2-6)Gal(b1-4)GlcNAc,-0.33
same,glycan array binding signal (z-score),[6],-0.103
same,glycan array binding signal (z-score),[7],-0.335
same,glycan array binding signal (z-score),Man(a1-2)Man(a1-3)Man,-0.182
same,glycan array binding signal (z-score),[8],0.072
same,glycan array binding signal (z-score),[9],-1.21
same,glycan array binding signal (z-score),[10],-0.187
same,glycan array binding signal (z-score),[11],-0.595
same,glycan array binding signal (z-score),[12],-0.64
same,glycan array binding signal (z-score),[13],-0.066
same,glycan array binding signal (z-score),Man(a1-3)[Man(a1-6)]Man,-0.774
same,glycan array binding signal (z-score),[14],2.06
same,glycan array binding signal (z-score),[15],4.4
same,glycan array binding signal (z-score),[16],-0.244
same,glycan array binding signal (z-score),[17],-0.201
same,glycan array binding signal (z-score),[18],0.348
same,glycan array binding signal (z-score),Man(a1-6)Man,-0.259
same,glycan array binding signal (z-score),Man(b1-4)GlcNAc,-0.382
same,glycan array binding signal (z-score),MurNAc(b1-4)GlcNAc,-0.683
same,glycan array binding signal (z-score),Neu5Ac(a2-3)Gal,-0.574
same,glycan array binding signal (z-score),[19],-0.302
same,glycan array binding signal (z-score),[20],-0.393
same,glycan array binding signal (z-score),[21],-0.358
same,glycan array binding signal (z-score),[22],-0.283
same,glycan array binding signal (z-score),[23],-0.441
same,glycan array binding signal (z-score),[24],-0.239
same,glycan array binding signal (z-score),[25],-0.088
same,glycan array binding signal (z-score),[26],-0.487
same,glycan array binding signal (z-score),[27],0.336
same,glycan array binding signal (z-score),[28],-0.624
same,glycan array binding signal (z-score),[29],-0.089
same,glycan array binding signal (z-score),[30],1.06
same,glycan array binding signal (z-score),[31],-0.248
same,glycan array binding signal (z-score),[32],0.015
same,glycan array binding signal (z-score),[33],3.45
